Source: PubChem BioAssay AID212 (DTP/NCI, 2004)
Results filed as inconclusive are left out. For part of its entries the source gives two or more results. This list holds those alone. An entry can have further records. Values that stand side by side are repeated measurements across runs, samples, wells, individuals or studies. Marks such as (2×) count equal records among those shown.

Tested on: BDF1 mice, colon carcinoma 38 sc, T/C %
Assay: NCI In Vivo Anticancer Drug Screen. Data for tumor model Colon Carcinoma 38 (subcutaneous) in B6D2F1 (BDF1) mice
Details: endpoint: median tumor weight (est.), higher = larger tumour
Outline: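 Mice with transplanted tumors are treated with compound or vehicle. Survival or tumor size is then measured in both groups. The ratio of treated to control gives the reported figure.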

[1] = dose: 12.5 mg/kg/injection, schedule: Q07DX002 (ip), vehicle: saline with Tween-80
[2] = dose: 25.0 mg/kg/injection, schedule: Q07DX002 (ip), vehicle: saline with Tween-80
[3] = dose: 50.0 mg/kg/injection, schedule: Q07DX002 (ip), vehicle: Klucel (hydroxypropylcellulose) (HPC)
[4] = dose: 200.0 mg/kg/injection, schedule: Q07DX002 (ip), vehicle: Klucel (hydroxypropylcellulose) (HPC)
[5] = dose: 12.5 mg/kg/injection, schedule: Q07DX002 (ip), vehicle: saline
[6] = dose: 50.0 mg/kg/injection, schedule: Q07DX002 (ip), vehicle: saline
[7] = dose: 100.0 mg/kg/injection, schedule: Q07DX002 (ip), vehicle: saline with Tween-80
[8] = dose: 100.0 mg/kg/injection, schedule: Q07DX002 (ip), vehicle: Klucel (hydroxypropylcellulose) (HPC)
[9] = dose: 50.0 mg/kg/injection, schedule: Q07DX002 (ip), vehicle: saline with Tween-80
[10] = dose: 4.0 mg/kg/injection, schedule: Q07DX002 (ip), vehicle: saline
[11] = dose: 8.0 mg/kg/injection, schedule: Q07DX002 (ip), vehicle: saline
[12] = dose: 25.0 mg/kg/injection, schedule: Q07DX002 (ip), vehicle: saline
[13] = dose: 100.0 mg/kg/injection, schedule: Q07DX002 (ip), vehicle: saline
[14] = dose: 200.0 mg/kg/injection, schedule: Q07DX002 (ip), vehicle: saline
[15] = dose: 400.0 mg/kg/injection, schedule: Q07DX002 (ip), vehicle: saline with Tween-80
[16] = dose: 800.0 mg/kg/injection, schedule: Q07DX002 (ip), vehicle: saline with Tween-80

## CSc1ccc2c(c1)C(N1CCN(C)CC1)Cc1ccccc1S2 (configuration not stated)
dose: 6.25 mg/kg/injection, schedule: Q07DX002 (ip), vehicle: saline with Tween-80
  T/C: 39 % of control and 65 % of control
[1]
  T/C: 35 % of control and 67 % of control
[2]
  T/C: 57 % of control and 99 % of control

## CCCCCC[C@H]([C@H](C)O)n1cnc2c(N)ncnc21
dose: 25.0 mg/kg/injection, schedule: Q07DX002 (ip), vehicle: Klucel (hydroxypropylcellulose) (HPC)
  T/C: 83 % of control and 112 % of control
[3]
  T/C: 85 % of control and 121 % of control
[4]
  T/C: 57 % of control and 120 % of control

## CC(=S)NC(O)C(=O)c1ccccc1 (configuration not stated)
[1]
  T/C: 43 % of control and 118 % of control
[2]
  T/C: 78 % of control and 109 % of control

## O=[N+]([O-])/C=C\c1ccc2c(c1)OCO2
dose: 6.25 mg/kg/injection, schedule: Q07DX003 (ip), vehicle: Klucel (hydroxypropylcellulose) (HPC)
  T/C: 42 % of control and 101 % of control
dose: 12.5 mg/kg/injection, schedule: Q07DX003 (ip), vehicle: Klucel (hydroxypropylcellulose) (HPC)
  T/C: 36 % of control and 62 % of control
dose: 50.0 mg/kg/injection, schedule: Q07DX003 (ip), vehicle: Klucel (hydroxypropylcellulose) (HPC)
  T/C: 57 % of control and 101 % of control

## NC(=O)c1ncn2c(=O)n(CCCl)nnc12
[5]
  T/C: 21 % of control and 85 % of control
[6]
  T/C: 2 % of control and 31 % of control

## CC(=O)C1=C(O)C2(O)C(=O)c3c(c(C)c4ccc(C)c(O)c4c3O)CC2C(N)C1=O (configuration not stated)
dose: 30.0 mg/kg/injection, schedule: Q07DX002 (ip), vehicle: saline + alcohol
  T/C: 77 % of control and 122 % of control

## Ic1ncnc2c1ncn2C1CCCO1 (configuration not stated)
[3]
  T/C: 52 % of control and 108 % of control

## Cc1c2ccccc2cc2cccc[n+]12
dose: 5.0 mg/kg/injection, schedule: Q07DX002 (ip), vehicle: saline
  T/C: 57 % of control and 102 % of control

## C/C=C/c1cc2c(c(=O)o1)C(=O)[C@@H](O)[C@H](C)O2
[7]
  T/C: 59 % of control and 92 % of control

## O=C(O)c1c2c(nc3ccccc13)Cc1ccccc1-2
dose: 25.0 mg/kg/injection, schedule: Q07DX002 (ip), vehicle: water
  T/C: 121 % of control and 171 % of control
dose: 50.0 mg/kg/injection, schedule: Q07DX002 (ip), vehicle: water
  T/C: 116 % of control and 159 % of control

## CN(C)c1nc(N(C)C)nc(N(C)C)n1
dose: 320.0 mg/kg/injection, schedule: Q07DX002 (ip), vehicle: saline with Tween-80
  T/C: 39 % of control and 96 % of control

## C=Cc1cnc([N+](=O)[O-])n1C
[8]
  T/C: 67 % of control, 71 % of control, 109 % of control
[4]
  T/C: 34 % of control, 76 % of control, 108 % of control

## CCCCCCCCCCS(=O)CC(CO)NC(=O)/C=C/c1c(C)[nH]c(=O)[nH]c1=O (configuration not stated)
dose: 0.75 mg/kg/injection, schedule: Q07DX002 (ip), vehicle: distilled water + Tween-80
  T/C: 68 % of control and 160 % of control
dose: 6.0 mg/kg/injection, schedule: Q07DX002 (ip), vehicle: distilled water + Tween-80
  T/C: 111 % of control and 158 % of control
dose: 24.0 mg/kg/injection, schedule: Q07DX002 (ip), vehicle: distilled water + Tween-80
  T/C: 58 % of control, 101 % of control, 151 % of control

## O/N=C/c1ccccc1O.O/N=C/c1ccccc1O.[Cu]
[9]
  T/C: 92 % of control and 121 % of control

## Cc1c(N)nc(C(CC(N)=O)NCC(N)C(N)=O)nc1C(=O)NC(C(=O)NC(C)C(O)C(C)C(=O)NC(C(=O)NCCc1nc(-c2nc(C(=O)NCCCNC(C)c3ccccc3)cs2)cs1)C(C)O)C(OC1OC(CO)C(O)C(O)C1OC1OC(CO)C(O)C(OC(N)=O)C1O)c1cnc[nH]1 (configuration not stated)
[10]
  T/C: 56 % of control and 102 % of control
[11]
  T/C: 49 % of control and 104 % of control
dose: 16.0 mg/kg/injection, schedule: Q07DX002 (ip), vehicle: saline
  T/C: 44 % of control and 167 % of control

## C[N+](C)(C)c1cc2c(nn1)Nc1ccccc1S2
[4]
  T/C: 87 % of control and 150 % of control

## ClCC[N+]12CC[N+](CCCl)(CC1)C2
[12]
  T/C: 70 % of control and 156 % of control
[6]
  T/C: 101 % of control and 168 % of control
[13]
  T/C: 107 % of control and 169 % of control
[14]
  T/C: 62 % of control and 91 % of control

## Cc1c(N)nc([C@H](CC(N)=O)NC[C@H](N)C(N)=O)nc1C(=O)N[C@H](C(=O)N[C@H](C)[C@@H](O)[C@H](C)C(=O)N[C@H](C(=O)NCCc1nc(-c2nc(C(=O)NCCC[S+](C)C)cs2)cs1)[C@@H](C)O)C(OC1OC(CO)C(O)C(O)C1OC1OC(CO)C(O)C(OC(N)=O)C1O)c1cnc[nH]1 (some centres not stated)
[10]
  T/C: 51 % of control and 110 % of control
[11]
  T/C: 29 % of control, 64 % of control, 102 % of control

## CO[C@@H]1[C@H](O)CC[C@]2(CO2)[C@H]1[C@@]1(C)O[C@@H]1CC=C(C)C
[1]
  T/C: 39 % of control, 84 % of control, 85 % of control
[2]
  T/C: 42 % of control, 68 % of control, 71 % of control
[7]
  T/C: 27 % of control and 84 % of control

## CCCCCCCCCCCCSC1=C(Cl)C(=O)C(OC)=C(OC)C1=O
[1]
  T/C: 77 % of control and 103 % of control
[7]
  T/C: 42 % of control and 82 % of control

## O=S1(=O)C=C(c2ccccc2)C(c2ccccc2)=C1
[1]
  T/C: 28 % of control and 122 % of control
[2]
  T/C: 46 % of control and 76 % of control

## Nc1ccc(C(OC(=O)c2cc3ccccc3c(Cc3c(O)c(C(=O)OC(c4ccc(N)cc4)(c4ccc(N)cc4)c4ccc(N)cc4)cc4ccccc34)c2O)(c2ccc(N)cc2)c2ccc(N)cc2)cc1
[1]
  T/C: 88 % of control and 117 % of control

## O=C(Nc1ccccc1)c1c(O)[nH]c(=S)[nH]c1=O
dose: 56.0 mg/kg/injection, schedule: Q07DX002 (ip), vehicle: saline with Tween-80
  T/C: 70 % of control and 120 % of control

## Nc1nc(-c2ccccc2)c(Br)c(=O)[nH]1
[15]
  T/C: 44 % of control and 100 % of control
[16]
  T/C: 32 % of control and 84 % of control

## COC1OC(CO)C(O)C(NC(=O)N(C)N=O)C1O (configuration not stated)
[12]
  T/C: 68 % of control and 113 % of control
[13]
  T/C: 64 % of control (2×) and 111 % of control
[14]
  T/C: 22 % of control, 75 % of control, 81 % of control
dose: 400.0 mg/kg/injection, schedule: Q07DX002 (ip), vehicle: saline
  T/C: 18 % of control, 37 % of control, 45 % of control

## O=NN(CCCl)C(=O)NCCO
dose: 6.25 mg/kg/injection, schedule: Q07DX002 (ip), vehicle: water
  T/C: 56 % of control and 93 % of control

## C[C@]12C=CC(=O)C=C1CC[C@@H]1[C@@H]2C(=O)C[C@@]2(C)[C@H]1CC[C@]2(O)C(=O)CO
dose: 400.0 mg/kg/injection, schedule: Q07DX002 (ip), vehicle: Klucel (hydroxypropylcellulose) (HPC)
  T/C: 58 % of control and 115 % of control

## Nc1n[nH]c(N)n1
[14]
  T/C: 85 % of control, 97 % of control, 155 % of control
dose: 800.0 mg/kg/injection, schedule: Q07DX002 (ip), vehicle: saline
  T/C: 62 % of control, 76 % of control, 92 % of control

## CCOC(=O)c1ccc(NC(=O)Nc2nncs2)cc1
dose: 100.0 mg/kg/injection, schedule: Q07DX002 (ip), vehicle: distilled water + Tween-80
  T/C: 82 % of control and 120 % of control
dose: 200.0 mg/kg/injection, schedule: Q07DX002 (ip), vehicle: distilled water + Tween-80
  T/C: 81 % of control and 155 % of control

## CCN(CC)CCOC(=O)Cc1cccc2c(=O)cc(-c3ccccc3)oc12
[5]
  T/C: 59 % of control and 105 % of control
[8]
  T/C: 50 % of control and 107 % of control

## CC1(C)OC(=O)N(CO)C1=O
[13]
  T/C: 57 % of control and 226 % of control
[14]
  T/C: 75 % of control and 226 % of control

## CCCCOC(=O)/C=C(\Br)C(=O)OCCCC
[1]
  T/C: 86 % of control and 112 % of control

## O=C(Nc1nncs1)c1cccs1
[2]
  T/C: 84 % of control and 117 % of control
[9]
  T/C: 58 % of control and 87 % of control
dose: 200.0 mg/kg/injection, schedule: Q07DX002 (ip), vehicle: saline with Tween-80
  T/C: 73 % of control and 115 % of control
[15]
  T/C: 53 % of control and 100 % of control
[16]
  T/C: 55 % of control and 118 % of control
